# Values joined by “and” are separate entries in the source; they are usually repeats but may differ in a detail not shown here. Equal entries are not always repeated. The whole screen tested about 270,000 compounds, of which about 5,800 (2.1%) were called active. The shares of active, inactive and inconclusive entries below differ from those in the screen. Calls follow the shape of the dose curve; as a rule, active = well fitted inhibition curve with a large enough effect; inconclusive = small, poorly fitted or top-dose-only effect; inactive = flat fitted curve, though single readings scatter. A potency beside an inconclusive call is a rough fit, not a confirmed value.
# Target: Microtubule-associated protein tau (Homo sapiens) (UniProt P10636)
# Sequence of UniProt P10636 (P10636 whole entry, looked up): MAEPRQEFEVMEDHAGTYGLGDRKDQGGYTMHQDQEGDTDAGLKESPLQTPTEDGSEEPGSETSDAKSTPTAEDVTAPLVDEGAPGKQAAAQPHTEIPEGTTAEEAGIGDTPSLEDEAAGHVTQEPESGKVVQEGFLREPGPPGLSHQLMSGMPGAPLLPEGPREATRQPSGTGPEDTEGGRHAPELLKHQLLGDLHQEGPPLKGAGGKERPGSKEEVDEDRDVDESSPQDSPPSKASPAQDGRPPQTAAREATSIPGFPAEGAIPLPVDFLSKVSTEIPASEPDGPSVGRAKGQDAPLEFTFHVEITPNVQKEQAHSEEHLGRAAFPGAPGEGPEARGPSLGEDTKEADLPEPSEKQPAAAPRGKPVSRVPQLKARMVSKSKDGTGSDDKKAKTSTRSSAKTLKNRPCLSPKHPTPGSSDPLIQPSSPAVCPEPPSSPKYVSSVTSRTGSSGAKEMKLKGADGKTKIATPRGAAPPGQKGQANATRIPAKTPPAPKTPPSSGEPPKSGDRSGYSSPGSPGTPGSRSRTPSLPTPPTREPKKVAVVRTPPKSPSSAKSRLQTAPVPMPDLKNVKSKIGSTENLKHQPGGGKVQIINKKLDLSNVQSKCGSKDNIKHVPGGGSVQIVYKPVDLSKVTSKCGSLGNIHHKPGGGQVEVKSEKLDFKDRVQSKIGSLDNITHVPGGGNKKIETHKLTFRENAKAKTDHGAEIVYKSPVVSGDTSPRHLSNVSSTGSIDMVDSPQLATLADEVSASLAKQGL
# Assay: qHTS for Inhibitors of Tau Fibril Formation, Thioflavin T Binding; also: nearly all actives have a fitted effect of over 55% in size
# Conditions: recombinant tau K18 P301L (four-repeat tau fragment), heparin-induced fibrillization, ThT fluorescence; series mostly up to 57.4 µM
# Summary of the method: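 K18 P301L tau (15 uM + 0.24 uM Alexa 594-tagged), heparin 20 uM, NaOAc pH 7, 6 h 37 C; ThT 30 uM, 1 h RT, ex 450/em 510 nm.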
# % is scaled to controls: 0 for no effect and ±100 for the full control effect; potency is read from the fitted curve at half-maximal effect; tags tell the direction and shape of the fitted curve.
SMILES,Potency,"activity, negative = inhibition"
O=C(NCCCN1CCOCC1)C(=O)N/N=C/c1c(Cl)cccc1Cl,inactive,–
N#Cc1c(-c2ccc(C(F)(F)F)cc2)cc(-c2ccccc2)[nH]c1=S,"inconclusive: 14.1 µM [inhibitor, partial curve]",–
CCN(C(=O)CSc1nnc(-c2cc(OC)c(OC)c(OC)c2)o1)c1ccccc1,"inconclusive: 31.6 µM [inhibitor, single point]",–
Cc1cc(C)nc(N(C#N)CC(=O)c2ccccc2)n1,"inconclusive: 31.6 µM [inhibitor, single point]",–
C#CCCCO/N=C1/C[C@@H](O)[C@@H](O)[C@@H]2[C@H]3C(=O)N(c4ccc(F)cc4F)C(=O)[C@@H]3CC[C@H]12,–,inactive: -2.97% [at 11.5 µM]
COc1ccc(C(=O)Nc2nc(-c3cccs3)cs2)cc1,"inconclusive: 5.62 µM [inhibitor, partial curve]",–
O=c1[nH]c2ccccc2cc1-c1nnn(-c2ccc(F)cc2)n1,"inconclusive: 28.2 µM [inhibitor, single point]",–
Cc1ccc(Cl)cc1NC(=O)CSc1nc2ccccc2c2nc(-c3ccccc3)nn12,inactive,–
CCOC(=O)C1CCN(C(=O)c2nn(-c3ccc(OC)c(Cl)c3)c(=O)c3c2c2ccccc2n3C)CC1,inactive,–
COc1cc(OC)c(-c2nn3c(-c4ccncc4)nnc3s2)cc1OC,inactive,–
COc1ccc2c(c1)[n+](=O)c(C(C)=O)c(C)n2[O-],"inconclusive: 28.2 µM [inhibitor, partial curve]",–
CC1=C(C(=O)OCc2ccccc2)C(c2ccc3ccccc3c2)NC(=O)N1CCCCCC(=O)O (stereo not given),"inconclusive: 39.8 µM [inhibitor, single point] and inconclusive: 17.8 µM [inhibitor, partial curve]",–
COc1ccc2[nH]c3c(c2c1)CCn1c-3nc2ccccc2c1=O,"inconclusive: 1.78 µM [inhibitor, full curve]",–
COc1ccc(OC)c(NC(=O)Cn2c(=O)c3cccn3c3ccccc32)c1,"inconclusive: 2.82 µM [activator, full curve]",–
CCOc1ccc2c(c1)c(=O)c(C(=O)c1ccc(CC)cc1)cn2CC(=O)Nc1ccccc1OC,"inconclusive: 8.91 µM [inhibitor, full curve]",–
COc1ccc(C(=O)NCS(=O)(=O)c2ccc(C)cc2)cc1,"inconclusive: 20 µM [inhibitor, partial curve]",–
CCOC(=O)c1ccc2c(c1)nc(SCC(=O)c1cc3ccccc3o1)n2CC,"inconclusive: 31.6 µM [inhibitor, single point]",–
O=C(Nc1cccc(Cl)c1)C1CCCN(c2nn3cc(-c4ccc(F)cc4)nc3s2)C1 (stereo not given),inactive,–
COc1ccccc1N/N=C(\C#N)C(=N)N1CCOCC1,"inconclusive: 17.8 µM [inhibitor, partial curve]",–
COc1cccc(C=Nc2cc(C)cc(C)c2)c1O,"inconclusive: 28.2 µM [inhibitor, single point]",–
CCN(CC)C(c1ccc(F)cc1)c1nnnn1C1CCCCC1 (stereo not given),inactive,–
COc1ccc(-n2c(Cc3cccn3C)nnc2SCC(=O)NC2CCCCC2)cc1,inactive,–
Cc1nc2ccccc2c(=O)n1NC(=O)Nc1ccccc1,inactive,–

SMILES,Potency,"activity, negative = inhibition"
O=C(CSc1nc2ncccc2[nH]1)Nc1cc(F)ccc1F,inactive,–
O=c1[nH]c(CN(CCO)CCO)nc2c1C1(CCCCC1)Cc1ccccc1-2,inactive,–
COc1cccc(-c2nnc(NC(=O)C3CCCCC3)o2)c1,inactive,–
Cc1ccccc1OCc1nc2c3cnn(-c4cccc(F)c4)c3ncn2n1,"inconclusive: 0.251 µM [inhibitor, full curve]",–
Cc1c(CNC2CCCCC2)c(C(=O)O)c(C)n1Cc1ccccc1F,inactive,–
Cc1nc2c(C)cccc2cc1C(=O)N/N=C/c1cccc([N+](=O)[O-])c1,"inconclusive: 25.1 µM [inhibitor, partial curve]",–
C/C(=N/NC(=O)Cc1cccc2ccccc12)c1cccs1,"inconclusive: 39.8 µM [inhibitor, single point]",–
Cn1c(=O)n(C)c2cc([N+](=O)[O-])c(N3CCN(C(=O)c4ccccc4Cl)CC3)cc21,"inconclusive: 22.4 µM [inhibitor, single point]",–
CCOC(=O)N1CCN(C(=O)CSCc2ccc(Cl)cc2)CC1,"inconclusive: 25.1 µM [inhibitor, partial curve, poor fit]",–
CC(C)=CCC/C(C)=C/CC/C(C)=C/CO,"inconclusive: 14.1 µM [inhibitor, partial curve, poor fit]",–
CCCCCCCCNC(=O)CCNC(=O)c1ccc(C(C)(C)C)cc1,"inconclusive: 7.94 µM [inhibitor, partial curve]",–
CC1CCCCN1C(=O)NC12CC3CC(CC(C3)C1)C2 (stereo not given),inactive,–
Cc1nc2sccn2c(=O)c1CCN1CCC(=C(c2ccccc2)c2ccc(F)cc2)CC1,"inconclusive: 17.8 µM [inhibitor, partial curve] and inconclusive: 35.5 µM [inhibitor, partial curve]",–
N#CCCn1cnc2c(=S)nc[nH]c21,inactive,–
Cc1nn2c(-c3ccccc3)ccnc2c1-c1ccccc1,"inconclusive: 22.4 µM [inhibitor, partial curve]",–
N=c1oc2cc(O)ccc2cc1C(=O)Nc1nc2ccccc2s1,"inconclusive: 14.1 µM [activator, partial curve]",–
Clc1ccc(-c2nc3nc4ccccc4nc3n2Cc2ccco2)cc1,inactive,–
Cn1c(N)c(C(=O)COC(=O)CCCc2c[nH]c3ccccc23)c(=O)n(C)c1=O,"inconclusive: 14.1 µM [inhibitor, partial curve]",–
Cc1c(C(=O)OC2CCC(C)CC2)[nH]c2c1C(=O)CCC2 (stereo not given),"inconclusive: 20 µM [inhibitor, partial curve, poor fit]",–
CC(C)CC(=O)Nc1ccc2c(c1)oc1ccccc12,inactive,–
O=C(Cn1cc(C(=O)C(F)(F)F)c2ccccc21)N1CCCCCC1,inactive,–
CC1(C)N=C(SCc2ccc(F)cc2)c2ccccc2N1,"inconclusive: 11.2 µM [inhibitor, partial curve]",–

# Source: PubChem BioAssay AID1460 (National Center for Advancing Translational Sciences (NCATS), 2008)
